# According to PubChem BioAssay (NCATS):
# Values joined by “and” are separate entries in the source; they are usually repeats but may differ in a detail not shown here. Equal values may be shown once. The inconclusive results got no clear call from the source; some entries with a clear call stand among them for comparison. For some assays here: Potencies of inconclusive entries are doubtful fits and often do not repeat. Active and inactive are the calls of the source. Unless noted, the call rests on the fitted dose curve; in most records, active means well fitted curve in either direction with a large enough effect (not every such curve was filed as active); inconclusive means small, poorly fitted or top-dose-only effect, or another doubt; inactive means flat fitted curve, though single readings scatter.
# How the values were obtained:
# [1] = Cell Viability - Hek293 (AID 427;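 active means compounds whose dose-response curve shows a full or clear partial loss of cell viability, called from curve shape rather than a numeric limit; inconclusive means weak partial curves or an effect only at the top dose; inactive means no dose-dependent loss of viability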;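 further: potency means the concentration at half of the fitted maximal effect; cells exposed to compound for 40 hours at 37 °C before reading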); details: qHTS
# How it was run: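 HEK293 cells in complete medium were exposed to compound for 40 hr at 37 °C, then cellular ATP was read by CellTiter-Glo luminescence. Data were normalized to DMSO (basal) and 100 uM tamoxifen (100% inhibition), and AC50 came from Hill fits.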
# [2] = Cell Viability - LYMP1-002 - Assay at 24 hr (AID 993; active means well fitted curve in the direction sought with a large enough effect; inconclusive means small, poorly fitted or top-dose-only effect, or another doubt; inactive means no such curve, though single readings can be large; an effect the other way counts as inactive or inconclusive; further: on the % scale 0 is the no-effect control and ±100 the full control effect); details: LYMP1-002 lymphoblastoid cells viability; series mostly up to 92.2 µM
# How it was run: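 qHTS, LYMP1-002 lymphoblastoid, 24 h cpd, 37 C, CellTiter-Glo ATP luminescence; AC50 via Hill eq.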
# [3] = target: Estrogen receptor (Homo sapiens) (UniProt P03372); assay: qHTS assay for small molecule antagonists of estrogen receptor alpha signaling (AID 588513; active means well fitted curve in the direction sought with a large enough effect in the signal ratio, with a control signal flat, not every such curve was filed as active; inconclusive means small, poorly fitted or top-dose-only effect, or effect the other way, or a change in a side signal; inactive means no such curve, though single readings can be large or run the other way; the % refers to the signal ratio; further: on the % scale 0 is the no-effect control and ±100 the full control effect); details: ER-alpha-UAS-bla HEK293, beta-lactamase ratio, antagonist mode; activity, negative = inhibition: at 76.9 µM (top of the series) unless noted
# Chain of UniProt P03372 (P03372 whole entry, looked up): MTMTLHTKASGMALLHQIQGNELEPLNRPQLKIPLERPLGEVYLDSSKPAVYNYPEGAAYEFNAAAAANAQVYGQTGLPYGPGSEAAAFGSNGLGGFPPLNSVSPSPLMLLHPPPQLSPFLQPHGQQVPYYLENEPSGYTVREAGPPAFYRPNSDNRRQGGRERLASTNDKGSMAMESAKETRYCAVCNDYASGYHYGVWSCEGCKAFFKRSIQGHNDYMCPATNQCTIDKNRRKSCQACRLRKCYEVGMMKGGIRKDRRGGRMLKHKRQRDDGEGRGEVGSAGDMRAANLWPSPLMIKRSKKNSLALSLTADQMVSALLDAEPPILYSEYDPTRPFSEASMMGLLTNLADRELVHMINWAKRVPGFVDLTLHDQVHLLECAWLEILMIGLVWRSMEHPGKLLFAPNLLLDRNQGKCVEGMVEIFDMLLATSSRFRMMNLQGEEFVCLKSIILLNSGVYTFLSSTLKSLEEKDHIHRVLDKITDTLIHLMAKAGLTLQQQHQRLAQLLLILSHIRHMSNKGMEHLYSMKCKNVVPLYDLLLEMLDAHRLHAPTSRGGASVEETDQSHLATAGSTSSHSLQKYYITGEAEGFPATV
# How it was run: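 ER-alpha-UAS-bla GripTite HEK 293 cells in 2% charcoal/dextran-treated FBS medium; compounds titrated (1:2, duplicate), then stimulated with 0.5 nM 17-beta-estradiol for 18 h at 37C. CCF4 beta-lactamase fluorescence; Hill-fit IC50 and efficacy.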
# [4] = target: Peroxisome proliferator-activated receptor gamma (Homo sapiens) (UniProt P37231); assay: qHTS assay for small molecule antagonists of peroxisome proliferator-activated receptor gamma signaling (AID 588537; active means well fitted inhibition curve with a large enough effect in the signal ratio, with a control signal flat, not every such curve was filed as active; inconclusive means small, poorly fitted or top-dose-only effect, or effect the other way, or a change in a side signal; the % refers to the signal ratio;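 further: reporter cells co-stimulated with 50 nM rosiglitazone agonist during compound treatment; % of control where 0% means no effect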); details: HEK293 PPARg-UAS-bla, beta-lactamase ratio, antagonist mode
# How it was run: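 Inhibitors of agonist-stimulated UAS-bla reporter activity were sought in HEK293 cells; rosiglitazone (50 nM) defined full signal and DMSO baseline. Curves fitted to Hill model gave IC50 and efficacy.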
# [5] = target: Thyroid hormone receptor beta (Homo sapiens) (UniProt P10828); assay: qHTS assay for small molecule antagonists of thyroid hormone receptor beta signaling (AID 588547; active means well fitted inhibition curve with a large enough effect in the signal ratio, with a control signal flat, not every such curve was filed as active; inconclusive means small, poorly fitted or top-dose-only effect, or effect the other way, or a change in a side signal; the % refers to the signal ratio;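 further: cells stimulated with 0.4 nM T3 agonist during compound exposure; on the % scale 0 is the no-effect control and ±100 the full control effect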); details: TR-UAS-bla HEK293, beta-lactamase ratio, antagonist mode, 18 h
# Chain of UniProt P10828 (P10828 whole entry, looked up): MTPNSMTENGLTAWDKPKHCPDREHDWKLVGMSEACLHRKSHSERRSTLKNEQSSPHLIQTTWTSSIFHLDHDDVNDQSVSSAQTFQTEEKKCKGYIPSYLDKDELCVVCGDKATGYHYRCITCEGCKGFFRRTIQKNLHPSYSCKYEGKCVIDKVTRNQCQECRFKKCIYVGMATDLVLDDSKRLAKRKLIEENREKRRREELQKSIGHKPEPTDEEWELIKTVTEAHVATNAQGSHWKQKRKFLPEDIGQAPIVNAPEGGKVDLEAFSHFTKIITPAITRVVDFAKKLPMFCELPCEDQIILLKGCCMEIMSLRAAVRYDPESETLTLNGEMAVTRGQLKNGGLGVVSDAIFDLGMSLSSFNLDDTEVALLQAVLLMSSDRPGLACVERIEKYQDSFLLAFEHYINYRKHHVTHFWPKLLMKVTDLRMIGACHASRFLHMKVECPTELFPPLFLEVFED
# How it was run: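 Inhibition of T3-driven (0.4nM final) beta-lactamase reporter activity was measured over 0.59 nM to 92 uM compound after 18 h at 37 C. The cells were GripTite HEK293 TR-UAS-bla in charcoal/dextran-stripped serum, with CCF4 ratio read-out and IC50 from Hill fits.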
# [6] = qHTS assay to identify small molecules that stimulate interleukin-8 (IL-8) secretion (AID 651758; active means well fitted activation curve with a large enough effect in the signal ratio; inconclusive means small, poorly fitted or top-dose-only effect, or effect the other way, or a change in a side signal; the % refers to the signal ratio; further: 0% is about no effect); details: HTRF ratio (665/615); activation: at 92.2 µM (top of the series)
# How it was run: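 Secreted IL-8 measured by TR-FRET sandwich (cryptate and XL665 antibodies) from THP-1 cells exposed to compound overnight (16 hrs, 37 C).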
# [7] = Cell Viability - SK-N-SH (AID 435; calls by dose curve;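 further: potency means the concentration at half of the fitted maximal effect; compound exposure lasted 40 h at 37 °C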); details: SK-N-SH neuroblastoma cell viability qHTS
# How it was run: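 SK-N-SH neuroblastoma cells (1500/well) treated 40 h at 37 °C in complete medium; viability read as cellular ATP by CellTiter-Glo luminescence. Normalized to DMSO and 100 uM tamoxifen; AC50 from Hill fits of qHTS concentration-response.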
# [8] = MultiTox-Fluor Cytotoxicity Assay - LYMP1-002 - Dead Cells (AID 960; active means well fitted curve in the direction sought with a large enough effect; inconclusive means small, poorly fitted or top-dose-only effect, or another doubt; inactive means no such curve, though single readings can be large; an effect the other way counts as inactive or inconclusive; further: potency means the concentration at half of the fitted maximal effect; nearly all actives have a fitted effect of over 60% in size); details: LYMP1-002 lymphoblastoid cells, dead-cell protease fluorescence; cytotoxicity (dead cells): at 46.1 µM (top of the series)
# How it was run: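 Acute cytotoxicity in a human lymphoblastoid line is scored as rising dead-cell protease signal after 16 hr exposure at 37 C, measured fluorometrically (485/520).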
# [9] = target: Peroxisome proliferator-activated receptor gamma (Homo sapiens) (UniProt P37231); assay: qHTS assay for small molecule agonists of peroxisome proliferator-activated receptor gamma signaling (AID 588536; active means well fitted curve in the direction sought with a large enough effect in the signal ratio, with a control signal flat, not every such curve was filed as active; inconclusive means small, poorly fitted or top-dose-only effect, or effect the other way, or a change in a side signal; inactive means no such curve, though single readings can be large or run the other way; the % refers to the signal ratio;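 further: 0% = DMSO basal wells and 100% = rosiglitazone at 2 µM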); details: HEK293 PPARg-UAS-bla, beta-lactamase ratio, 16 h; activation: at 76.7 µM (top of the series), percent of rosiglitazone response, DMSO as zero
# How it was run: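 GeneBLAzer PPAR-gamma-UAS-bla HEK293 cells in 1% charcoal/dextran-treated FBS medium were treated 16 h at 37 C with compounds. Beta-lactamase activity was read by CCF4 ratio (460/530 nm). Response was normalized to 2 uM rosiglitazone (100%) and DMSO, then Hill-fitted for EC50 and efficacy.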
# [10] = NFAT Signaling Pathway (AID 444); details: Jurkat NFAT-bla M1, carbachol, beta-lactamase ratio, 5 h; at 17.2 µM (top of the series) unless noted;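 further: carbachol stimulus at about its EC50 of 1 µM final; on the % scale 0 is the no-effect control and ±100 the full control effect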
# How it was run: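 Read-out: CCF4 FRET ratio (460 nm/530 nm) after 1 h RT dye loading, used for %activity and AC50 from titration series. Cells: Jurkat NFAT-β-lactamase/M1 line, treated with compound plus 1 uM carbachol for 5 h, 37 °C.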
# [11] = qHTS assay for small molecule antagonists of the retinoid-related orphan receptor gamma (ROR-gamma) signaling pathway - cell viability counter screen (AID 720652; active means well fitted curve in the direction sought with a large enough effect in the repeat runs; inconclusive means weak or mixed curves; inactive means no such curve, though single readings can be large; an effect the other way counts as inactive or inconclusive); details: RORgamma reporter cell line viability counter screen; series mostly up to 92.2 µM
# How it was run: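 Cytotoxicity is quantified via intracellular ATP (CellTiter-Glo luminescence) in doxycycline-induced CHO ROR response element-luciferase reporter cells treated with compound for 16 hr at 37 C, 5% CO2.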
# [12] = Cell Viability - H-4-II-E (AID 543; active means well fitted curve in the direction sought with a large enough effect; inconclusive means small, poorly fitted or top-dose-only effect, or another doubt; inactive means no such curve, though single readings can be large; an effect the other way counts as inactive or inconclusive; further: on the % scale 0 is the no-effect control and ±100 the full control effect; nearly all actives have a fitted effect of over 35% in size); details: H-4-II-E rat hepatoma viability; series mostly up to 92.2 µM
# How it was run: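 Here, cytotoxicity is measured in the rat hepatoma line H-4-II-E as loss of intracellular ATP after 40 hr compound treatment, detected by luciferase luminescence.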
# [13] = MultiTox-Fluor Cytotoxicity Assay - LYMP1-003 - Live Cells (AID 962; active means well fitted curve in the direction sought with a large enough effect; inconclusive means small, poorly fitted or top-dose-only effect, or another doubt; inactive means no such curve, though single readings can be large; an effect the other way counts as inactive or inconclusive;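 further: 0% = DMSO only and full loss = 92 µM tetraoctylammonium bromide; cytotoxic hits lower the live-cell protease signal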); details: LYMP1-003 lymphoblastoid cells, MultiTox-Fluor live-cell protease fluorescence; series mostly up to 92.2 µM
# How it was run: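 Cells plated at 2500 per well and incubated 5 hr; compounds added and incubated 16 hr at 37 C; MultiTox-Fluor reagent added for 60 min at room temperature; fluorescence of liberated AFC measured at 405/510 nm.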
# [14] = target: Glucocorticoid receptor (Homo sapiens) (UniProt P04150); assay: qHTS assay for small molecule antagonists of glucocorticoid receptor signaling (AID 588533; active means well fitted inhibition curve with a large enough effect in the signal ratio, with a control signal flat, not every such curve was filed as active; inconclusive means small, poorly fitted or top-dose-only effect, or effect the other way, or a change in a side signal; the % refers to the signal ratio); details: HeLa MMTV-bla, GRE beta-lactamase ratio, antagonist mode, 18 h; activity change, negative = inhibition: at 76.8 µM (top of the series)
# [15] = qHTS assay for small molecule agonists of the antioxidant response element (ARE) signaling pathway measured by Nrf2-dependant transcriptional activity (AID 720636; active means well fitted curve in the direction sought with a large enough effect in the repeat runs; inconclusive means weak or mixed curves; inactive means no such curve, though single readings can be large; an effect the other way counts as inactive or inconclusive;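 further: HepG2 cells with an ARE-driven luciferase reporter; % of control where 0% means no effect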); details: ARE-luc HepG2, Nrf2 luciferase reporter, 16 h; series mostly up to 92.4 µM
# How it was run: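 Cells: ARE-luc HepG2 with Nrf2-responsive luciferase. Medium contained 1% dialyzed FBS. Compound exposure lasted 16 hr at 37 C and 5% CO2, followed by ONE-Glo luciferase detection.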
# [16] = Cell Viability - LYMP2-002 (AID 977; active means well fitted curve in the direction sought with a large enough effect; inconclusive means small, poorly fitted or top-dose-only effect, or another doubt; inactive means no such curve, though single readings can be large; an effect the other way counts as inactive or inconclusive;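 further: compound exposure lasted 24 h at 37 °C; plate controls were DMSO only for no effect and 92 µM tetraoctylammonium bromide for full effect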); details: LYMP2-002 lymphoblastoid cell viability, qHTS; activity change, negative = cytotoxic: at 92.2 µM (top of the series)
# How it was run: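 Cytotoxicity is scored as concentration-dependent loss of cellular ATP in a human lymphoblastoid line after 24 hr compound treatment at 37 C. AC50 is obtained by modelling concentration-response data with the Hill equation.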
# [17] = target: Estrogen receptor (Homo sapiens) (UniProt P03372); assay: qHTS assay for small molecule agonists of estrogen receptor alpha signaling (AID 588514; calls by dose curve;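 further: 0% = vehicle only and 100% = reference agonist; nearly all actives have a fitted effect of over 70% in size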); details: ER-alpha-UAS-bla HEK293, beta-lactamase ratio, 18 h; activation: at 76.8 µM (top of the series), percent of full estradiol response, vehicle zero
# How it was run: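 Reporter-gene assay. […] controls beta-lactamase in HEK 293 GripTite cells; after 18 hrs with compound, CCF4 substrate is added for 2 hrs and fluorescence is read.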
# [18] = target: Peroxisome proliferator-activated receptor delta (Homo sapiens) (UniProt Q03181); assay: qHTS assay for small molecule antagonists of peroxisome proliferator-activated receptor delta signaling (AID 588535; active means well fitted inhibition curve with a large enough effect in the signal ratio, with a control signal flat, not every such curve was filed as active; inconclusive means small, poorly fitted or top-dose-only effect, or effect the other way, or a change in a side signal; inactive means no such curve, though single readings can be large or run the other way; the % refers to the signal ratio; further: potency means the concentration at half of the fitted maximal effect); details: HEK293T PPARd-UAS-bla, beta-lactamase FRET ratio, 18 h; activity change, negative = inhibition: at 76.7 µM (top of the series)
# Chain of UniProt Q03181 (Q03181 whole entry, looked up): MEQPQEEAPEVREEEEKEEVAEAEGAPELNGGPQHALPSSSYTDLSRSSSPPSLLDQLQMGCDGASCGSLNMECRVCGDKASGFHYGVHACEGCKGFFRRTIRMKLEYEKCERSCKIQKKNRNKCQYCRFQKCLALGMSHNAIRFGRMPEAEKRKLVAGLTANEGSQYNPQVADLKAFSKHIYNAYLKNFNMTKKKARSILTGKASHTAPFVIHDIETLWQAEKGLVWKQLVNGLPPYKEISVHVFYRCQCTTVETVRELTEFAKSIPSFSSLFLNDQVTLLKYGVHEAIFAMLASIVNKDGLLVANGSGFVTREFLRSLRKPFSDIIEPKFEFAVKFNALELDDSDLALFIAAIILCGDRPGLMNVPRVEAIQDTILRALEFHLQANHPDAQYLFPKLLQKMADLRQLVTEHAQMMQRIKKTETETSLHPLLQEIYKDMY
# How it was run: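 Cell-based beta-lactamase assay in antagonist mode: 4000 HEK293T PPAR-delta-UAS-bla cells per well, 5 hr preincubation then 18 hr compound incubation at 37 C. IC50 obtained by Hill equation fitting.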
# [19] = qHTS assay for small molecule agonists of the antioxidant response element (ARE) signaling pathway (AID 651741; active means well fitted activation curve with a large enough effect in the signal ratio; inconclusive means small, poorly fitted or top-dose-only effect, or effect the other way, or a change in a side signal; the % refers to the signal ratio; further: % of control where 0% means no effect); details: HepG2 ARE-bla reporter, beta-lactamase FRET ratio, 16 h; activation: at 96 µM (top of the series) unless noted
# How it was run: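 Seeding 2,000 ARE-bla HepG2 cells per well preceded a 5 h incubation at 37 C/5% CO2 and a 16 h compound exposure at 37 C. Beta-lactamase reporter activity was then quantified by fluorescence after 2 h with LiveBLAzer B/G FRET substrate.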
# [20] = activity, negative = inhibition: at 76.8 µM (top of the series)
# Tags describe the fitted curve by direction and shape or compound fluorescence and quenching.
smiles,measurement,setting,value
ClCCCl,Potency,[1],inactive: > 92 µM
same,Potency,[2],inactive
same,"activity, negative = inhibition",[3],inconclusive: -9.59% [at 2.03 mM]
same,"activity, negative = inhibition",[4]; [20],inconclusive: 6.19%
same,activity change % (negative = inhibition),[5],inactive: 4.14% and inactive: 2.63% and inactive: 8.67%
same,Potency,[6],inactive
Cc1ccccc1Br,Potency,[7],inactive: > 92 µM
same,Potency,[8],"inconclusive: 20 µM [cytotoxic, partial curve]"
same,Potency,[9],inactive
same,"activity, negative = inhibition",[4]; [20],inconclusive: 3.6%
same,activation,[6],inconclusive: 26.1%
CC(C)C1=C2OC(N)=C(C#N)C(C#N)=C2C(C)CC1 (configuration not stated),"activity change, negative = inhibition",[10],inconclusive: -32% [inhibitor]
CS(=O)(=O)N1CCC2(CCCN(C(c3ccccc3)c3ccccc3)C2)CC1,"activity change, negative = inhibition",[10],inconclusive: -67.9% [inhibitor] [at 7.69 µM]
O=C(CCCN1C(=O)c2ccccc2C1=O)N1CCC(c2ccccc2)C1 (configuration not stated),"activity change, negative = inhibition",[10],inactive: 15.7%
CCOc1ccc(N2C(=O)CC(N)C2=O)cc1 (configuration not stated),"activity change, negative = inhibition",[10],inconclusive: -30.4% [inhibitor]
COCCOC(=O)c1ccccc1C(=O)OCCOC,Potency,[7],inactive: > 92 µM
same,Potency,[4]; [20],inactive
same,activity change % (negative = inhibition),[5],inactive: 7.4%
same,Potency,[6],inactive
same,Potency,[11],inactive
CC(NC(=O)OCc1ccccc1)C(=O)OCN1C(=O)c2ccccc2C1=O (configuration not stated),"activity change, negative = inhibition",[10],inactive: -16.6%
CC(C)CN1CC2(CCN(C(=O)c3cccc(F)c3)CC2)C1,"activity change, negative = inhibition",[10],inconclusive: -65.1% [inhibitor] [at 7.69 µM]
CC1(C)Cc2c(c(N3CCOCC3)nc3snc(N)c23)CO1,"activity change, negative = inhibition",[10],inactive: -24.1%
O=C(c1cccc(F)c1)N1CCC[C@@]2(CCN(Cc3nccs3)C2)C1,"activity change, negative = inhibition",[10],inactive: 7.56% [at 7.69 µM]
CC(C)Cn1nc(NC(=O)C(C)(C)C)c2cc3ccccc3nc21,"activity change, negative = inhibition",[10],inconclusive: 47.2% [activator]
CC1(C)O[C@H]2[C@@H](O1)[C@@H](On1nnc3ccc(Cl)cc31)O[C@@H]2[C@@H]1COC(C)(C)O1,"activity change, negative = inhibition",[10],inactive: 3.42% [at 7.69 µM]
COCC(=O)O,Potency,[7],inactive: > 92 µM
same,Potency,[12],inactive
same,Potency,[13],inactive
same,"activity change, negative = inhibition",[14],inconclusive: 13.8%
same,"activity, negative = inhibition",[4]; [20],inconclusive: 1.15%
same,"activity, negative = inhibition",[4]; at 76.8 µM (top of the series),inactive: 14.1%
same,activation,[6],inconclusive: -20.1%
same,Potency,[15],inactive
COC(=O)CC1=C(C(=O)OC)C(c2ccc3c(c2Cl)OCO3)C(C#N)=C(N)O1 (configuration not stated),"activity change, negative = inhibition",[10],inconclusive: -51.9% [inhibitor]
COc1ccc(C2/C(=C(\O)c3ccc4c(c3)OCCO4)C(=O)C(=O)N2CCCN(C)C)cc1 (configuration not stated),"activity change, negative = inhibition",[10],inconclusive: -57.5% [inhibitor]
O=C(NCc1ccco1)c1cnn2c(C(F)(F)F)cc(-c3ccco3)nc12,"activity change, negative = inhibition",[10],inconclusive: -46.7% [inhibitor]
O=C(O)CCCCCCC1C(=O)NC(=O)N1CCC(O)C1CCCCC1 (configuration not stated),"activity change, negative = inhibition",[10],inconclusive: -33% [inhibitor]
Cc1cccc(C)c1OCC(O)CNS(=O)(=O)c1ccccc1C(=O)N1CCCCC1 (configuration not stated),"activity change, negative = inhibition",[10],inconclusive: 35.3% [activator]
COc1cccc(Cn2c(OCC3CCCO3)nc3c2c(=O)n(C)c(=O)n3C)c1 (configuration not stated),"activity change, negative = inhibition",[10],inactive: -8.17%
CC(=O)N1CCC2(CCCN(Cc3ccc(C#N)cc3)C2)CC1,"activity change, negative = inhibition",[10],inconclusive: -57.8% [inhibitor] [at 7.69 µM]
FC(F)(F)c1cccc(Cl)c1,Potency,[7],inactive: > 92 µM
same,Potency,[16],inactive
same,Potency,[17],inactive
same,Potency,[18],"inconclusive: 28.2 µM [fluorescent, single point]"
same,Potency,[19],inactive
same,activation,[6],inconclusive: 20.7%
